According to paper PMC4336329 (PLoS ONE, 2015):
The whole screen tested about 310,000 compounds, of which about 14,000 (4.5%) showed an effect of 50% or more. Effects have a minus sign here. The list shows a part of the results.

Molecular target: human ether-à-go-go-related gene (hERG) potassium channel (human, UniProt Q12809)
Assay: primary screen, population patch clamp on CHO cells stably expressing hERG
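Also: peak tail current of the secondary pulse compared with the same well before compound.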

human ether-à-go-go-related gene (hERG) potassium channel, sequence (Q12809 whole entry, looked up): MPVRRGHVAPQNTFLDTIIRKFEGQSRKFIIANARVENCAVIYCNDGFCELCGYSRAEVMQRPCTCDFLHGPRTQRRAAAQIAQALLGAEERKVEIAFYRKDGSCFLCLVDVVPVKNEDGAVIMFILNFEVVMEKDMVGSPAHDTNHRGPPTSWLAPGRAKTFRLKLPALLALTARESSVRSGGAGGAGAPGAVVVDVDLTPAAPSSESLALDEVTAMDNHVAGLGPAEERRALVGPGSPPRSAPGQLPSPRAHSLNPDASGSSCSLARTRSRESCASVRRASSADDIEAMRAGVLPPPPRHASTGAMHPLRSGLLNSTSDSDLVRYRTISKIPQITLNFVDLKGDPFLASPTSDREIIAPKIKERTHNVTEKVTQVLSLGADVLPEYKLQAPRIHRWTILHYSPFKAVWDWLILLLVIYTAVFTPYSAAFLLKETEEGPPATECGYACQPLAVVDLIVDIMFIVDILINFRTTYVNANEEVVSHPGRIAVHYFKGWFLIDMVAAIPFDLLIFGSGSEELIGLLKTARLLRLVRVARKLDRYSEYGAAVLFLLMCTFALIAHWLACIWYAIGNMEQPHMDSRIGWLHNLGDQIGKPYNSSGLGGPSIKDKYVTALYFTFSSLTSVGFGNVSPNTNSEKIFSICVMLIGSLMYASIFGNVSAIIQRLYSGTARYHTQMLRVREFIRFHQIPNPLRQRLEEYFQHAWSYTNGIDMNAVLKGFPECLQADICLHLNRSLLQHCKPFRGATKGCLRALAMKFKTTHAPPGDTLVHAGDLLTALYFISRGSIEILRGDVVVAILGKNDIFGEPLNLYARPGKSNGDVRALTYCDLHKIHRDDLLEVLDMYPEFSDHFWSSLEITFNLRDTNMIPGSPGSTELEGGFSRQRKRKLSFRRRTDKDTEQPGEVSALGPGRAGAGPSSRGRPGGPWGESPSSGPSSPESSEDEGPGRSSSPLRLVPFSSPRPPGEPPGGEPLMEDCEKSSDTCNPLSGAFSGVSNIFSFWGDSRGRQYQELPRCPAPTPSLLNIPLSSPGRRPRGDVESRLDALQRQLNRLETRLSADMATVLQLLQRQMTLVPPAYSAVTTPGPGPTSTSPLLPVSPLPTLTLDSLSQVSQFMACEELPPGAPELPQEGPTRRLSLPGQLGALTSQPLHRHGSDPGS

SMILES	hERG current change (%, negative = inhibition) at 10uM [%]
CCSc1ccc([C@@H]2[C@H]3C(=O)N(C)C(=O)[C@H]3[C@]3(C(=O)OC)CCCCN23)cc1OC.O=C(O)C(F)(F)F	-8.41
Cc1cccc(CCNC(=O)C2CCC(=O)N(Cc3ccc(Cl)cc3)C2)n1 (stereo not drawn)	5.05
N#Cc1ccc(OCC(=O)N/N=C/C2CC=CCC2)cc1 (stereo not drawn)	-16.4
Br.OCCn1c(-c2ccccc2)csc1=Nc1ccccc1	-19.6
O=C(CSc1nc2ccccc2s1)NCCOc1ccccc1	-1.83
Cc1ccc(N(CCC(=O)Nc2nnc(C3CC3)s2)S(=O)(=O)c2ccccc2)cc1	-16.2
O=S(=O)(NC1CCCCC1Nc1ccc(Cl)cc1)c1ccccc1 (stereo not drawn)	7.5
COc1ccc(-c2csc(NC(=O)CCCc3nc4ccccc4c(=O)[nH]3)n2)cc1OC	-22.4
COc1cc2c(C(=O)N3CCN(c4cccc(Cl)c4)CC3)cn(CC(C)C)c(=O)c2cc1OC	-63.6
Cn1c(=O)c2c(SCC(=O)Nc3cccc(F)c3)nc(-c3ccco3)nc2n(C)c1=O	10.7
CN(NC(=O)Nc1ccccc1)c1cnn(C)c(=O)c1Cl	27.4
O=P(Cc1ccccc1O)(c1ccccc1)c1ccccc1	3.52
CN(C(=O)c1ccc2c(c1)OCO2)C1(C(=O)NC2CCCC2)CCCCC1	-0.155
CC(Oc1ccc2c(-c3ccccc3)cc(=O)oc2c1)C(=O)NCCCn1ccnc1 (stereo not drawn)	-52.5
COc1ccccc1-c1nc(C#N)c(N2CCN(C(c3ccccc3)c3ccccc3)CC2)o1	6.58
Cc1ccc(NC(=O)c2cnccn2)nc1	6.83
C=CCOc1c(Cl)cc(/C=N/O)cc1OC	7.64
Cc1ccc(NC(=O)CSc2nnc(Cn3c(=O)sc4ccccc43)n2C)cc1	2.3
O=C1CN(C(=O)c2ccc(Br)o2)C(c2ccc(F)cc2)c2cc(Cl)ccc2N1 (stereo not drawn)	-11.6
NC(=NC(=O)c1cccc(C(F)(F)F)c1)c1ccc(C(F)(F)F)cn1	-8.17
O=C(c1ccc2c(c1)ncn2C1CCCCC1)N1CCC2(CC1)OCCO2	-2.01

SMILES	hERG current change (%, negative = inhibition) at 10uM [%]
Nc1cc(Oc2ccc(Cl)cc2Cl)nc(N)n1	13
COc1cccc(N2CCN(C3CC(=O)N(c4ccc(C)c(Cl)c4)C3=O)CC2)c1 (stereo not drawn)	-9.03
COCc1cc(C)nc(SCC(=O)Nc2cc(C(F)(F)F)ccc2N2CCOCC2)c1C#N	-18.3
CC(C)CN(C(=O)COC(=O)c1c(Cl)ccc(Cl)c1Cl)C1CCS(=O)(=O)C1 (stereo not drawn)	-23.4
CCOC(=O)NC(=S)Nc1ccc(C(C)(C)C)cc1Br	4.68
COc1ccc(CNC(=O)C/C(C)=N/NC(=O)c2cnccn2)cc1	30.8
COc1cccc(N2CCN(Cc3ccco3)CC2)c1	21.4
O=C(NC12CC3CC(CC(C3)C1)C2)N1CCN(C(=O)C2CCCO2)CC1 (stereo not drawn)	3.22
O=C(COc1ccc(S(=O)(=O)NC2CCCCC2)cc1)N1CCN(c2ccc(F)cc2)CC1	-16.6
COc1cc(CNCc2ccccn2)ccc1OCC(=O)NC(C)(C)C.Cl	0.777
COc1ccc(NC(C)=O)cc1S(=O)(=O)Nc1ccccc1C(=O)N1CCCC1	1.8
CC(C)N(C(=O)CSc1nc2ccccc2n1Cc1ccccc1)C(C)C	-10.7
COC(=O)c1ccc2c(=O)[nH]c(CSc3nc(-c4ccc(F)cc4)cs3)nc2c1	6.41
CN1/C(=C\C(=O)c2oc3ccccc3c2N)C(C)(C)c2ccccc21	15.9
COCCNC(=O)/C(C#N)=C/C=C/c1ccccc1[N+](=O)[O-]	6.93
O=C(COC(=O)c1cc[n+]([O-])cc1)Nc1cc([N+](=O)[O-])ccc1Cl	-18.3
Fc1cccc(F)c1CN1CCN(c2ncccn2)CC1	15.5
Cc1noc(NS(=O)(=O)c2ccc(NC(=O)C34CC5CC(C3)CC(n3cnc(Br)n3)(C5)C4)cc2)c1C	4.56
COc1cc2cc(CN(CCN3CCCC3)C(=O)Nc3ccc(F)cc3)c(=O)[nH]c2cc1OC	-7.92
O=C(NCCCn1ccnc1)C(=O)NCC1OCCCN1S(=O)(=O)c1ccc(F)cc1 (stereo not drawn)	16.6
Cc1ccc(NC(=S)NCCc2ccccc2)nc1	0.15

SMILES	hERG current change (%, negative = inhibition) at 10uM [%]
CC(NC(=O)C(C)N1C(=O)c2ccccc2C1=O)c1ccccc1 (stereo not drawn)	1.68
NC(=O)c1c(NC(=O)C2CC=CCC2C(=O)O)sc2c1CCCCC2 (stereo not drawn)	16.9
Cc1ccc(/C=N/NC(=O)CNC(=O)COc2ccccc2)o1	-6.13
N#C/C(=C\c1cccnc1)C(=O)Nc1ccccc1	4.04
Nc1c(C(=O)c2ccccc2)oc2ccccc12	10.5
CCN(C(=O)c1ccco1)c1nnc(-c2ccc(OC)cc2)s1	10.6
COc1ccc(NC(=O)CCC(=O)c2ccc(-c3ccccc3)cc2)cc1	7.34
COC(=O)c1ccc(CN2CCCC(CO)(Cc3ccc(F)cc3F)C2)cc1 (stereo not drawn)	-42.3
COc1ccccc1N1CC(C(=O)NCCN2C(=O)S/C(=C\c3cccnc3)C2=O)CC1=O (stereo not drawn)	1.78
Cc1cc(NS(=O)(=O)c2ccc(NC(=O)CCCC(=O)O)cc2)nc(C)n1	10.4
O=c1[nH]c(SCc2ccc(Cl)cc2)nc2ccsc12	-67
Cc1nc(CNS(=O)(=O)c2ccccc2F)cs1	4.37
O=C(NCC(c1ccco1)N1CCCC1)c1ccc(Cl)c(S(=O)(=O)N2CCc3ccccc32)c1 (stereo not drawn)	-51
CCCSc1nnc(-c2cccc(S(=O)(=O)N(C)C)c2)n1-c1cc(OC)ccc1OC	-68.2
O=C(NCN1CCN(c2ccccc2F)CC1)c1ccccc1	-4.76
COc1ccc(-c2nc3c(s2)CCc2onc(-c4ccc(Br)cc4)c2-3)cc1	10.2
COC(=O)[C@@H](NCc1cccc(CN[C@H](C(=O)OC)C(C)C)c1)C(C)C	6.01
CCC1=NN(C(=O)COc2ccccc2C)C(O)(c2ccncc2)C1 (stereo not drawn)	-7.5
Cc1ccc(NC(=O)CN2CCN(Cc3ccccc3)CC2)cc1F	-71.2
CC(C)(C)c1nc2ccccc2c2nnc(SCC(=O)Nc3nc4ccccc4s3)n12	5.82
COc1ccc(N2Cc3cccc(C(=O)N4CCOCC4)c3C2=O)cc1	-11.8

SMILES	hERG current change (%, negative = inhibition) at 10uM [%]
CCOC(=O)C1C(=O)C=C(c2cccs2)CC1c1ccccc1 (stereo not drawn)	3.93
CCOc1ccccc1NC(=O)Nc1ccc(Br)cn1	-4.01
Cc1ccc(OCC(O)CN2CCN(CC(O)COc3ccc(C)cc3)CC2)cc1 (stereo not drawn)	-63.9
COCCNc1cc(C)nc2ccccc12.Cl	-10.8
CC1=C(C(=O)N2CCOCC2)C(c2cc(C)cs2)NC(=O)N1 (stereo not drawn)	5.45
COC(=O)c1cnc(Oc2ccc(NC(=O)NC(=O)c3c(OC)cccc3OC)cc2)cc1C(F)(F)F	-14.1
Cc1cc(C)nc(SCC(=O)N/N=C\c2sccc2C)n1	4.22
O=C(COc1ccccc1)NCCSCc1ccco1	13.6
Cc1cnccc1CN(C)Cc1cn(C)nc1-c1cccc(Cl)c1	-12.3
Cc1oc2cc(OCc3cnn(-c4ccccc4)c3)ccc2c(=O)c1Oc1ccccc1F	-11.2
Cc1ccc(NC(=O)C/C(N)=N/O)cc1C	6.96
CC(=O)c1c(N2CCOCC2)nc(=S)n(-c2ccccc2)c1C	2.4
O=S(=O)(NCc1ccc2c(c1)OCO2)c1ccc(Cl)s1	-20.6
COc1ccc(C(=O)N2CCC(C(=O)O)CC2)c2ccccc12	-8.49
COc1ccc(CCNC(=O)CS(=O)(=O)c2cn(CC(=O)N(C(C)C)C(C)C)c3ccccc23)cc1OC	2.18
CCOC(=O)N1CCN(C(=O)c2ccc(Cl)c(S(=O)(=O)Nc3ccccc3)c2)CC1	-1.35
CCOc1cc(/C=C(\C#N)C(=O)Nc2ccccc2C(=O)O)ccc1OC(=O)c1ccc(C)cc1	24.8
Cl.FC(F)(F)c1cccc(N2CCNCC2)c1	-13.3
COCCNc1nc(-c2ccc(OC)cc2)c(-c2ccc(OC)cc2)s1	15.3
CN1C[C@H](C(=O)NC2(C)OC3(O)[C@@H]4CCCN4C(=O)[C@H](Cc4ccccc4)N3C2=O)CC2c3cccc4[nH]cc(c34)C[C@H]21.CS(=O)(=O)O (stereo partly drawn)	-3.57
CC(C)NC(=O)/C(=C/c1cn(-c2ccccc2)nc1-c1cccc([N+](=O)[O-])c1)NC(=O)c1ccccc1	1.56
